Legend:
DPP-IV = target: T1, DPP-IV (Homo sapiens, UniProt P27487); experiment: DPP-IV cleavage assay; assay type: in vitro ADME; details: 1.2 nM, DPP-IV 1 μg/mL, room temperature, 0-40 minutes
T1 construct: purchased R&D Systems
Method: DPP-IV cleavage assay. Since GLP-1 is rapidly inactivated by DPP-IV, an in vitro assay was established to quantitate intact (i.e. uncleaved) GLP-1 MMB of SEQ ID NO: 69. Briefly, GLP-1 MMB of SEQ ID NO: 69 or peptide (1.2 nM) was incubated at room temperature with DPP-IV (1 μg/mL, R&D Systems). After various times (0, 5, 10, 15, 20, 30, 40 minutes), a DPP-IV inhibitor (100 μM, Linco) was added to quench the reaction. The amount of intact GLP-1 MMB of SEQ ID NO: 69 or peptide was measured using the GLP-1 Active ELISA (Linco) and the GLP-1 MMB of SEQ ID NO: 69 or peptides for the respective standard curves.

GLP-1R = target: T2, GLP-1R (Homo sapiens, UniProt P43220); experiment: FACS binding assay; details: flow cytometry
T2 construct: expressed in transfected cells; host or cells: HEK293
T2 sequence (P43220 24-463, species assumed): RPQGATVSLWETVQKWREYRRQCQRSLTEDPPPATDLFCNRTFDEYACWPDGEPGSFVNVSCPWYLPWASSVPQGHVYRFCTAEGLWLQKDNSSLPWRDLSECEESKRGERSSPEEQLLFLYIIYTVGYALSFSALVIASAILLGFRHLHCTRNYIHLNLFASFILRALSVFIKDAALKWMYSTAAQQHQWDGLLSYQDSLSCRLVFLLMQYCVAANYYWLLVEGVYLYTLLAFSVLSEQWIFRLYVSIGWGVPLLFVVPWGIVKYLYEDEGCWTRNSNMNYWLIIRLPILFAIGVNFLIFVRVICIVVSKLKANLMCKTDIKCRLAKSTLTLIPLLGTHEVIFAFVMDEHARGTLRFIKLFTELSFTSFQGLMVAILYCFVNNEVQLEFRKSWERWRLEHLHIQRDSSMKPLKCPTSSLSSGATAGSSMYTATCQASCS
Method: FACS Binding Assay. The activity of a GLP-1 mimetibody was tested in an in vitro FACS binding assay. To determine whether the GLP-1 MMB binds the GLP-1R, HEK293 cells (1×10^6 cells) over-expressing the GLP-1 R were incubated with GLP-1 MMB of SEQ ID NO: 69 (20 nM) for 2 hours at 4° C. The cells were washed, and a fluorescently labeled secondary detection antibody (1 μg/mL goat anti-human IgG, Fc gamma specific) was added for 30 minutes at 4° C. The fluorescence intensity of the cells was monitored via flow cytometry.

T1 sequence (P27487 whole entry, species assumed): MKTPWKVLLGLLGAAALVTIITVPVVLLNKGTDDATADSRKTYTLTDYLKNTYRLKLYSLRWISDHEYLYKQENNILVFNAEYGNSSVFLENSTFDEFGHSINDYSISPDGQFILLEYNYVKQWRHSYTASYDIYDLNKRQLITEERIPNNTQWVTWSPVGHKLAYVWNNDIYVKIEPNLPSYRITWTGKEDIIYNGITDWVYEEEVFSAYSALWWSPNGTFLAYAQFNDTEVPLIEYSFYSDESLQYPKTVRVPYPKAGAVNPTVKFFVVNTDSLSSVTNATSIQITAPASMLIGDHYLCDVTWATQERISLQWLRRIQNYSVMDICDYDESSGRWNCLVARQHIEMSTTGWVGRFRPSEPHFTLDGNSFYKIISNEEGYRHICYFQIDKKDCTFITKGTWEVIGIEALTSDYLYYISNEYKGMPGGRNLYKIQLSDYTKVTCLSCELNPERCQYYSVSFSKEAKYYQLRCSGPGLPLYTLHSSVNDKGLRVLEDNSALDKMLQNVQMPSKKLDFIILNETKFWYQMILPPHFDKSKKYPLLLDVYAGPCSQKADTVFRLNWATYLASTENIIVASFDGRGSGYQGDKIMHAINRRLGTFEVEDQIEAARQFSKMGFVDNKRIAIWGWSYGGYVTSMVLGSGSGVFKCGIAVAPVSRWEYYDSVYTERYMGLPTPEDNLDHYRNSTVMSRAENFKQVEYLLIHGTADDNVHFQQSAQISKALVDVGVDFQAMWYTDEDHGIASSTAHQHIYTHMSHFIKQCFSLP

B1: GLP-1 MMB of SEQ ID NO: 69: wild-type GLP-1 sequence incorporated into a mimetibody scaffold (protein)
chain: HAEGTFTSDVSSYLEGQAAKEFIAWLVKGRGGGSGGGSGTLVTVSS[human IgG4 Fc with S228P F234A L235A (EU numbers) omitted]
- resistance to cleavage by DPP-IV relative to the GLP-1 peptide (DPP-IV): significantly more resistant
- binding to control HEK293 cells (GLP-1R): does not bind
